From the supplement of paper PMC11383711
The list shows a part of the results. Binding of human antibodies (heavy:light variable regions, tested as scFv in one mRNA-display pool) to influenza hemagglutinin, with or without the stem antibody CR9114 bound first. Score = (mean enrichment − median) / interquartile range of that screen; higher = more enriched, 0 = typical non-binder. Active = above the paper's cut-off per screen: stems 28; unblocked H1 Solomon Islands 5, H1 Michigan 3, H3 5, H5 19, H7 2.85, both B 5; blocked 9, 7, H5 10, H7 10, B Phuket 10, B Lee 11.5. Scores are scaled within each screen and are no affinities; replicates correlate at about 0.6 to 0.9, and antibodies rare in the pool are noisier.

B1: W85-3F09 (protein)
chain 1: EVQLVESGGGVVQPGRSLRLSCAASGFTFSSFGMHWVRQAPGKGLEWMAVISYNGINKDYADSVKGRFTISRDNSKNTLYLQMNSLRAEDTAVYYCAAGQRQFDYFPDGDYYYFDSWGQGTLVTVSS
chain 2: QSALTQPPSASGTPGQRVTISCSGSSSNIGSYYVYWYQQLPGTAPKVLIYRNDRRPSGLPDRFSGSKSGTSASLAISGLRSEDEGDYYCASWDNSLSGPVFGGGTKLTV
B2: K77-2H03 (protein)
chain 1: QVQLVQSGAEVRKPGASVKVSCRASGYTFTSYHLHWVRQAPGQGLEWMGIINLSGGSITYAQKFQGRVTMTRDTSTSTAYMELSSLRSDDTAVYYCARRGFIVTSHLYYYGMDVWGQGTTVTVS
chain 2: EIVLTQSPGTLSLSPGERATLSCRASQSVSSSYLAWYQQKPGQAPRLLIYGASSRATGIRDRFSGYGSGTDFTLTISRLEPEDCAVYYCQQYGRYGTFGQGTKVEIK
B3: AG11-E04 (protein)
chain 1: VQLQESGPGLVKPSETLSLTCSVSGDSISSDYYWGWIRQPPGKGLEWIGSLYAGGITYYSPSLESRLSMAMDTSRNEFSMSLTSVTAADAAVYYCVRDRNILSREGFDFWGQGILVTVSS
chain 2: DIQMTQSPSSLSASVGDSVTITCRASQNIGFFLNWYRQKPGKAPELLVYLASTLQSGVPSRFSGGRSGTDFTLTISGLQPQDFATYFCQQSYENTPYTFGQGTKVEIK
B4: 051-10-2A05 (protein)
chain 1: EVQLVESGGGLVQPGGSLRLSCAASGFIFSSYWMSWVRQAPGKGLEWVANINQGGSEKQYVDSVKGRFTISRDNAKKSLFLQMNRLRAEDTAVYYCVRVGAYGDTYHDYYGMDVWGQGTTVTVSS
chain 2: SYELTQAPSVSVAPGQTARITCGGNNIGSKSVQWYQQKPGQAPVMVVFDGSDRPSGIPERFSGANSGNTATLTISRVEAGDEADYHCQVWDSSSERHVVFGGGTKLTVL
B5: antibody 1F06 (protein)
chain 1: VQLLESGGGLVQPGGSLRLSCAASGLTFSSYAMSWVRQAPGKGLEWVSVIYSDGSGTWYADSVKGRFTISRDNSKNTLFLQMSSLRAEDTAVYYCAKDRFRGSWIDVFDIWGQGTMVTVSS
chain 2: DIQMTQSPSSLSASVGDRVTITCQASQDMSNSLNWYHQKPGKAPKLLIYGASHLEAGVPSRFSGSGSGTDFTFTISSLQPEDIGTYYCQRFKAFGQGTKVEIK
B6: R95-2G09 (protein)
chain 1: QVQVQESGPGLVKPSETLSLTCNVSGGSISSSAYYWGWIRQSPGKGLEWIGSLHYSGSTDYNPSLKSRVTIFADTSKNQFSLKLTSVTAADTAVYYCARRGYNGNYYEYFHHWGQGTLVTVSS
chain 2: DIVMTQSPLSLPVTPGEPASISCRSSQSLLHSNGYNYLDWYLQKPGQSPQLLIYLGSSRASGVPDRFSGSGSGTDFTLKIRRVEADDVGVYYCMQALQTPHTFGQGTKLEIK

Each binder was assayed against Influenza A H1N1 A/Michigan/45/2015 hemagglutinin ectodomain (assay: mRNA display binding score; higher = more enriched on the antigen). Settings: antigen blocked with: 2 µM CR9114 IgG.
Experimental: (§1)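 A pool of natively paired antibodies, displayed as scFv on mRNA, was selected once on antigen-coated beads and sequenced before and after; two replicates.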
For B1, the “mRNA display binding score” value was inactive: 1.05.
With B2 the “mRNA display binding score” value was inactive: -0.187.
With B3 the “mRNA display binding score” value was inactive: -0.549.
For B4, the “mRNA display binding score” value was inactive: -0.241.
B5 was tested, and the “mRNA display binding score” value was inactive: -0.0479.
B6 was tested, and the “mRNA display binding score” value was inactive: 0.0775.

Same assay, conditions: antigen blocked with: nothing
In the case of B1, the “mRNA display binding score” value is reported as inactive: 0.942.
For B2, the “mRNA display binding score” value was inactive: -0.0563.
With B3 the “mRNA display binding score” value was inactive: -0.486.
For B4, the “mRNA display binding score” value was inactive: -0.155.
With B5 the “mRNA display binding score” value was inactive: -0.0185.
For B6, the “mRNA display binding score” value was inactive: 0.221.

These binders were tested against Influenza A H1N1 A/Solomon Islands/3/2006 hemagglutinin ectodomain in the same assay as above. Settings: antigen blocked with: 2 µM CR9114 IgG.
Experimental: as §1
B1 was tested, and the “mRNA display binding score” value was inactive: -0.143.
B2 was tested, and the “mRNA display binding score” value was inactive: -0.172.
For B3, the “mRNA display binding score” value was inactive: -0.557.
For B4, the “mRNA display binding score” value was inactive: 1.07.
B5 was tested, and the “mRNA display binding score” value was active: 39.2.
For B6, the “mRNA display binding score” value was inactive: 0.467.

Same assay, conditions: antigen blocked with: nothing
B1 was tested, and the “mRNA display binding score” value was inactive: -0.209.
With B2 the “mRNA display binding score” value was inactive: -0.326.
For B3, the “mRNA display binding score” value was inactive: -0.514.
With B4 the “mRNA display binding score” value was active: 13.7.
In the case of B5, the “mRNA display binding score” value is reported as active: 13.4.
For B6, the “mRNA display binding score” value was inactive: -0.0261.

These binders were tested against Influenza A H3N2 A/Singapore/INFIMH-16-0019/2016 hemagglutinin ectodomain in the same assay as above. Settings: antigen blocked with: nothing.
Experimental: as §1
With B1 the “mRNA display binding score” value was inactive: -0.402.
In the case of B2, the “mRNA display binding score” value is reported as inactive: 1.96.
For B3, the “mRNA display binding score” value was inactive: -0.492.
With B4 the “mRNA display binding score” value was inactive: 0.91.
With B5 the “mRNA display binding score” value was inactive: -0.522.
For B6, the “mRNA display binding score” value was inactive: 0.415.

These binders were tested against Influenza A H5N1 A/Qinghai/1A/2005 hemagglutinin ectodomain in the same assay as above. Settings: antigen blocked with: 2 µM CR9114 IgG.
Experimental: as §1
With B1 the “mRNA display binding score” value was inactive: -0.0409.
For B2, the “mRNA display binding score” value was inactive: -0.733.
With B3 the “mRNA display binding score” value was inactive: 0.0037.
With B4 the “mRNA display binding score” value was inactive: -0.615.
In the case of B5, the “mRNA display binding score” value is reported as inactive: -0.69.
For B6, the “mRNA display binding score” value was inactive: 0.398.

Same assay, conditions: antigen blocked with: nothing
With B1 the “mRNA display binding score” value was inactive: 0.51.
With B2 the “mRNA display binding score” value was inactive: -0.423.
For B3, the “mRNA display binding score” value was inactive: 0.43.
For B4, the “mRNA display binding score” value was inactive: -0.237.
With B5 the “mRNA display binding score” value was inactive: -0.305.
B6 was tested, and the “mRNA display binding score” value was inactive: 0.078.

The binders below were run against Influenza A H7N9 A/Shanghai/2/2013 hemagglutinin ectodomain in the same assay as above. Settings: antigen blocked with: 2 µM CR9114 IgG.
Experimental: as §1
With B1 the “mRNA display binding score” value was inactive: -0.725.
With B2 the “mRNA display binding score” value was inactive: -0.671.
With B3 the “mRNA display binding score” value was inactive: 0.000668.
For B4, the “mRNA display binding score” value was inactive: -1.07.
B5 was tested, and the “mRNA display binding score” value was inactive: -0.568.
In the case of B6, the “mRNA display binding score” value is reported as inactive: -0.349.

Same assay, conditions: antigen blocked with: nothing
For B1, the “mRNA display binding score” value was inactive: 0.0727.
B2 was tested, and the “mRNA display binding score” value was inactive: 0.146.
For B3, the “mRNA display binding score” value was inactive: -0.74.
For B4, the “mRNA display binding score” value was inactive: -0.376.
B5 was tested, and the “mRNA display binding score” value was inactive: -0.308.
B6 was tested, and the “mRNA display binding score” value was inactive: 0.234.

Each binder was assayed against Influenza B/Lee/1940 hemagglutinin ectodomain in the same assay as above. Settings: antigen blocked with: 2 µM CR9114 IgG.
Experimental: as §1
B1 was tested, and the “mRNA display binding score” value was inactive: -0.726.
With B2 the “mRNA display binding score” value was inactive: -0.424.
B3 was tested, and the “mRNA display binding score” value was inactive: -0.675.
With B4 the “mRNA display binding score” value was inactive: 0.568.
In the case of B5, the “mRNA display binding score” value is reported as inactive: 0.7.
In the case of B6, the “mRNA display binding score” value is reported as inactive: 4.65.

Same assay, conditions: antigen blocked with: nothing
B1 was tested, and the “mRNA display binding score” value was inactive: 0.117.
With B2 the “mRNA display binding score” value was inactive: -0.152.
B3 was tested, and the “mRNA display binding score” value was inactive: -0.209.
In the case of B4, the “mRNA display binding score” value is reported as inactive: 0.128.
With B5 the “mRNA display binding score” value was inactive: -0.156.
In the case of B6, the “mRNA display binding score” value is reported as active: 14.2.

The binders below were run against Influenza B/Phuket/3073/2013 hemagglutinin ectodomain in the same assay as above. Settings: antigen blocked with: 2 µM CR9114 IgG.
Experimental: as §1
For B1, the “mRNA display binding score” value was inactive: 0.0752.
With B2 the “mRNA display binding score” value was inactive: -0.368.
B3 was tested, and the “mRNA display binding score” value was inactive: 3.05.
B4 was tested, and the “mRNA display binding score” value was inactive: -0.161.
With B5 the “mRNA display binding score” value was inactive: -0.324.
In the case of B6, the “mRNA display binding score” value is reported as inactive: 0.081.

Same assay, conditions: antigen blocked with: nothing
With B1 the “mRNA display binding score” value was inactive: 1.11.
B2 was tested, and the “mRNA display binding score” value was inactive: -0.0535.
In the case of B3, the “mRNA display binding score” value is reported as inactive: 2.9.
In the case of B4, the “mRNA display binding score” value is reported as inactive: -0.257.
In the case of B5, the “mRNA display binding score” value is reported as inactive: -0.173.
For B6, the “mRNA display binding score” value was inactive: -0.28.
